Screen size: about 340,000 compounds; about 530 (0.16%) were called active. The shares of active, inactive and inconclusive entries below differ from those in the screen. Rule as the data show it: active = activity change below about -80%; inconclusive = between about -30% and that limit; inactive = weaker than that.
assay: Small Molecules that selectively kill Giardia lamblia: qHTS; settings: Giardia lamblia trophozoite viability; at 7.66 µM; stronger effect = lower value;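 also: parasites exposed to compound for two days anaerobically before the ATP read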
Outline: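 Each well holds 100 Giardia trophozoites and compound. After two days (48 hrs) at 37 deg C in anaerobic conditions, ATP is quantified by luminescence.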
% is scaled to controls: 0 for no effect and ±100 for the full control effect.

Row | Structure (SMILES) | activity change
1 | CCOC(=O)C1CCCN(c2c(N3CCN(c4cccc(Cl)c4)CC3)c(=O)c2=O)C1 (centres undefined) | inconclusive: -32.3% [inhibitor]
2 | CC(C)c1ccc(NC(=O)C2CCN(S(=O)(=O)c3ccc4c(c3)NC(=O)CO4)CC2)cc1 | inconclusive: -38.4% [inhibitor]
3 | CC1(C)C(C=C(Cl)Cl)C1C(=O)OCc1cccc(Oc2ccccc2)c1 (centres undefined) | inconclusive: -33.5% [inhibitor]
4 | O=C(CSc1ccc(Br)cc1)NC1CCCCCC1 | inactive: -7.88%
5 | COc1cc(NC(=O)CSc2nnc(-c3ccncc3)o2)cc(OC)c1OC | inconclusive: -32.4% [inhibitor]
6 | NS(=O)(=O)c1ccc(CCNC(=O)C2CCCN2C(=O)OCc2ccccc2)cc1 (centres undefined) | inconclusive: -35.8% [inhibitor]
7 | CCOc1cccc(C2C=C(c3ccc4c(c3)OCO4)NC(c3ccccc3F)N2)c1O (centres undefined) | inconclusive: -37.4% [inhibitor]
8 | Cc1cccc(N2CCN(C(=S)c3ccc4c(c3)OCO4)CC2)c1 | inactive: 12.3%
9 | O=C(Nc1cccc(Cl)c1N1CCOCC1)c1ccc([N+](=O)[O-])o1 | active: -85.8%
10 | CCc1ccc(-c2nc3c(=O)n(C)c(=O)nc-3n(CC)n2)cc1 | active: -90.7%
11 | O=C(O)c1ccccc1Nc1ccc([N+](=O)[O-])c2nonc12 | inconclusive: -30.2% [inhibitor]
12 | COc1ccc(CCNC(=O)c2coc3ccccc3c2=O)cc1 | inconclusive: -36.8% [inhibitor]
13 | O=C(Nc1ccn(-c2ccccc2)n1)c1ccc(Cl)cc1 | inconclusive: -38.6% [inhibitor]
14 | Cc1ccc(-n2nc3c(c2NC(=O)C2CCCC2)CS(=O)(=O)C3)cc1 | inconclusive: -34.4% [inhibitor]
15 | CC1CCCC(C)N1C(=O)CSc1nnc(COc2cccc3cccnc23)o1 (centres undefined) | inconclusive: -36% [inhibitor]
16 | COc1ccc2nc(NN=C(C)c3ccccn3)cc(C)c2c1 | inconclusive: -30.5% [inhibitor]
17 | O=C(c1ccc(CSc2nc3ccncc3[nH]2)cc1)N1CCCCC1 | inconclusive: -44.6% [inhibitor]
18 | Cc1ccc(S(C)(=O)=NC(=O)NC(=O)c2c(F)cccc2Cl)cc1 (centres undefined) | inconclusive: -31.1% [inhibitor]
19 | CC(C)C(O)C1CCN(Cc2nc(-c3cccs3)no2)CC1 (centres undefined) | inactive: -7.84%
20 | Cc1nnsc1-c1nc2ccccc2[nH]1 | inactive: 9.77%
21 | C/C(CC(=O)Nc1ccc(C)c(Cl)c1)=N\NC(=O)C1CCCCC1 | inconclusive: -32.8% [inhibitor]
22 | CCCCCC(=O)Nc1cccc(C2=NOC3(C2)C[C@H](C(N)=O)N(C(=O)COc2ccc(Cl)cc2)C3)c1 (some centres undefined) | inconclusive: -37.5% [inhibitor]
23 | Cc1ccc(CNC(=O)CCc2nnc3ccc(N4CCC5(CC4)OCCO5)nn23)cc1 | inactive: -19.9%
24 | O=C(c1ccc(Cl)cc1)N1CCCC(C(=O)N2CCN(c3ccccc3)CC2)C1 (centres undefined) | inconclusive: -39.2% [inhibitor]
25 | CCc1ccc2oc(C(=O)NCc3ccc(S(N)(=O)=O)cc3)c(C)c2c1 | inconclusive: -36.9% [inhibitor]
26 | COC(=O)c1ccccc1S(=O)(=O)N1CCC(C(=O)NCc2ccco2)CC1 | inconclusive: -30.9% [inhibitor]
27 | S=c1[nH]cc(-c2ccc(Cl)cc2)n1Cc1ccccc1 | inactive: -15.8%

Row | Structure (SMILES) | activity change
28 | CC(NC(=O)C(NS(=O)(=O)c1cccs1)C(C)C)c1ccc(S(N)(=O)=O)cc1 (centres undefined) | inconclusive: -30.3% [inhibitor]
29 | COc1ccc2nc3cccc(OC)c3nc2c1 | inactive: -8.23%
30 | COc1ccc(C(=O)Nc2ccccc2C(=O)N/N=C/c2ccncc2)cc1OC | inconclusive: -49.1% [inhibitor]
31 | Cc1ccc(NC(=S)NC(=O)c2ccc(-c3ccc(Cl)cc3)o2)c(O)c1 | inactive: 0.964%
32 | Cn1c(=N)n(CC(O)c2cccc3ccccc23)c2ccccc21 (centres undefined) | inconclusive: -33.6% [inhibitor]
33 | CC(=O)N[C@@H](Cc1c[nH]c2ccccc12)C(=O)NCc1ccccc1 | inconclusive: -30.4% [inhibitor]
34 | O=C(NCCc1ccccc1F)c1ccc2c(c1)OCCO2 | inconclusive: -62.1% [inhibitor]
35 | Cc1cc(-c2ccc(S(=O)(=O)N3CCN(c4ccccc4F)CC3)s2)on1 | inconclusive: -40.7% [inhibitor]
36 | O=C1C(=O)N(c2ccccn2)C(c2ccc(Br)cc2)/C1=C(/O)c1ccc(Br)cc1 (centres undefined) | inconclusive: -33.2% [inhibitor]
37 | COc1ccc(CCNC(=O)C2CCC(=O)N(C3CCCCCC3)C2)cc1 (centres undefined) | inconclusive: -30.9% [inhibitor]
38 | N#Cc1sc2nc3c(cc2c1N)CCCC3 | inconclusive: -40% [inhibitor]
39 | Fc1ccc(OCCCCCCN2CCCC2)cc1 | inactive: 3.6%
40 | Nc1ccc(S(=O)(=O)Nc2ncccn2)cc1 | inconclusive: -34.1% [inhibitor]
41 | COc1ccc(-n2nc([N+](=O)[O-])c(=NCCc3ccccc3)n2O)cc1 | inconclusive: -79.1% [inhibitor]
42 | CCn1nc(C)cc1C(=O)OCC(=O)c1ccc(Cl)cc1 | inconclusive: -31.1% [inhibitor]
43 | CSc1nc2ccccc2cc1/C=C(\C#N)c1cccc(C)c1 | inactive: -13.5%
44 | COc1ccc(-c2cn3ccsc3n2)cc1 | inconclusive: -57.3% [inhibitor]
45 | Cn1c(SCC(=O)c2ccc3c(c2)OCCO3)nnc1C(F)(F)F | inconclusive: -33.7% [inhibitor]
46 | CCCN1CCN(S(=O)(=O)c2ccc3c(c2)NC(=O)C(C)S3)CC1 (centres undefined) | inactive: 4.53%
47 | Cc1cc(C)n(S(=O)(=O)c2ccccc2[N+](=O)[O-])n1 | active: -86.9%
48 | CC(CN1CCC(n2nccc2NC(=O)CCCc2ccccc2)CC1)c1ccccc1 (centres undefined) | inconclusive: -41.6% [inhibitor]
49 | Cc1cc(N2CCN(c3ccccc3)CC2)nc(-c2ccccc2O)n1 | inactive: 11.4%
50 | CCOC(=O)c1c(C)[nH]c(C)c1S(=O)(=O)NC1CCN(C(=O)OCC)CC1 | inconclusive: -35.7% [inhibitor]
51 | Cc1ccc(OC(C)C(=O)Nc2ncc(Cl)cc2Cl)c([N+](=O)[O-])n1 (centres undefined) | inconclusive: -39.4% [inhibitor]
52 | Cc1nn(C)c(Oc2ccccc2)c1CCNC(=O)CCl | inconclusive: -32.1% [inhibitor]
53 | NCCCn1c(C(=O)c2cc(Cl)c(N)c(Cl)c2)c2ccccc2[n+]1[O-] | inconclusive: -53.7% [inhibitor]
54 | COc1ccc(-n2c(CN3CCOCC3)nc3ccc([N+](=O)[O-])cc3c2=O)c(OC)c1 | inconclusive: -33.1% [inhibitor]

Row | Structure (SMILES) | activity change
55 | CC1CCN(S(=O)(=O)c2cn(C)c(=O)n(C)c2=O)CC1 | inconclusive: -51.3% [inhibitor]
56 | Fc1ccc2nc(N3CCCC3)sc2c1 | inactive: 19.4%
57 | CCOc1ccc2nc(N3CCCC(C(=O)NCCCN4CCOCC4)C3)sc2c1 (centres undefined) | inconclusive: -38% [inhibitor]
58 | CCOc1ccc(-n2c(C)c(C(C)=O)c3cc(O)ccc32)cc1 | inconclusive: -58.4% [inhibitor]
59 | O=[N+]([O-])c1ccc(Nc2ccc3ccccc3c2)nc1 | inactive: -4.1%
60 | Cc1ccc(-c2ccccc2[C@@H]2C[C@H]3CN(C)C(=O)[C@]34CCCN24)o1 | inactive: -12.8%
61 | COc1cc(SC)ccc1C(=O)Nc1nc(C)cs1 | active: -94.7%
62 | Cn1c(-c2ccc(C(=O)c3ccccc3)s2)nc2ccccc21 | inconclusive: -57.5% [inhibitor]
63 | Cc1cc(C)nc(SCC(=O)NN=C2CCCC2)n1 | inconclusive: -43.1% [inhibitor]
64 | O=C(CSc1nncn1-c1ccccc1)c1c[nH]c2ccccc12 | inconclusive: -40.2% [inhibitor]
65 | CCOC(=O)c1cc2sccc2n1CCCN1C(=O)c2ccccc2C1=O | inactive: -7.49%
66 | O=C(CN1CCCCC1)Nc1ccc(NC(=O)c2ccc(Cl)cc2)cc1Cl | inactive: -6.3%
67 | O=C(Nc1cccc(-c2nc3cccnc3s2)c1)C1c2ccccc2Oc2ccccc21 | inconclusive: -32.1% [inhibitor]
68 | Cc1ccc(NC(=O)Nc2cccc(C(F)(F)F)c2)nc1 | inconclusive: -31.6% [inhibitor]
69 | O=c1c(-c2ccc(F)cc2)coc2cc(O)ccc12 | inconclusive: -48.3% [inhibitor]
70 | CC(=O)c1cccc(NC(=S)NC(=O)C(C)C)c1 | inconclusive: -30.8% [inhibitor]
71 | Cc1ccc(NC(=O)C2(c3ccccc3)CCOCC2)cc1 | inconclusive: -32.4% [inhibitor]
72 | CCn1ncc([N+](=O)[O-])c1C(=O)Nc1cc(C)on1 | inconclusive: -30.5% [inhibitor]
73 | O=[N+]([O-])c1cccc(-c2nc(-c3ccccn3)no2)c1 | inconclusive: -37.8% [inhibitor]
74 | Cc1cc(NC(=O)CSc2ccc(-c3cccc([N+](=O)[O-])c3)nn2)no1 | inactive: 4.86%
75 | CCCOc1ccc(C(=O)NNC(=S)NC(C)=O)cc1 | inconclusive: -30.4% [inhibitor]
76 | O=C(CSc1ccsc1[N+](=O)[O-])NCc1ccco1 | inconclusive: -62.8% [inhibitor]
77 | COc1ccc(C2c3ccc(O)cc3Oc3ncn4nc(-c5cccnc5)nc4c32)cc1OC (centres undefined) | inactive: -1.54%
78 | CN1C2=CC=CC=CC2=[N+](C)C12C([N+](=O)[O-])=CC(=[N+]([O-])[O-])C=C2[N+](=O)[O-] (centres undefined) | active: -93.8%
79 | Cc1ccc(-c2noc(-c3ccccc3Br)n2)cc1 | inconclusive: -36.5% [inhibitor]
